# About 64,000 (15%) of roughly 420,000 compounds were called active. The shares of active, inactive and inconclusive entries below differ from those in the screen. Calls come from the whole dose curve; as a rule, active = well fitted inhibition curve with a large enough effect; inconclusive = small, poorly fitted or top-dose-only effect; inactive = flat fitted curve, though single readings scatter. No potency is given beside an inconclusive call; the fits are too rough.
# Experiment: qHTS for Inhibitors of human tyrosyl-DNA phosphodiesterase 1 (TDP1): qHTS in cells in absence of CPT; note: nearly all actives have a fitted effect of over 55% in size
# Details: DT40 Tdp1-/- hTDP1 cells, no CPT, ATP luminescence, 48 h; activity change, negative = growth inhibition: at 46.2 µM (top of the series) unless noted
# Procedure, shortened: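 DT40 Tdp1-/-;hTDP1 cells, no CPT (DMSO vehicle only), 400 cells/well; compounds pin-transferred; ≥48 hr, 37 °C; CellTiter-Glo 30 min RT dark, luminescence read.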
# % is set by controls: 0 for no effect and ±100 for the full control effect; potency is the fitted concentration of half-maximal effect; tags give direction and shape of the fitted curve.
Structure (SMILES),Potency,"activity change, negative = growth inhibition"
CC(=O)c1ccc(NS(=O)(=O)c2ccc(N)cc2)cc1,"inconclusive [inhibitor, single point]",–
Cc1ccccc1Nc1cc(C(=O)NCCc2ccc(Cl)cc2)c2ccccc2n1,"inconclusive [inhibitor, single point]",–
O=C(C1CCN(S(=O)(=O)c2ccccc2F)CC1)N1CCN(Cc2ccc3c(c2)OCO3)CC1,"inconclusive [inhibitor, single point]",–
CCc1cc(C(=O)Nc2nc(-c3ccccn3)cs2)sc1C,active: 2.91 µM,–
COc1ccc(O)c(/C=C2/SC(=S)N(Cc3ccccc3)C2=O)c1,active: 20.6 µM,–
COc1ccccc1NC(=O)CSc1nnc(CNC(=O)c2cccs2)o1,inactive,–
CCC(=O)N1CCc2cc(Br)cc(S(=O)(=O)N3CCCC(C(=O)NCc4ccc(OC)cc4)C3)c21 (centres undefined),"inconclusive [inhibitor, single point]",–
CC(C)(C)CN1CCN(CCCc2ccccc2)C(CCO)C1 (centres undefined),"inconclusive [inhibitor, single point]",–
COc1cccc(-n2c(SCC(=O)NC3CC3)nc3ccccc3c2=O)c1,"inconclusive [inhibitor, partial curve]",–
COc1cccc(C(=O)NCCSc2ccc(C)cc2)c1,inactive,–
CC(CNC(=O)Cn1c(-c2cccs2)cc2ccccc21)c1ccccc1 (centres undefined),"inconclusive [inhibitor, single point]",–
COC(=O)Cc1c(C)c2ccc3c(c2oc1=O)CN(Cc1ccccc1OC)CO3,"inconclusive [inhibitor, partial curve]",–
COc1ccc(NC(=O)N2CCCC(c3nc(-c4ccc(OC)cc4)no3)C2)cc1 (centres undefined),"inconclusive [inhibitor, single point]",–
O=C(c1cc2ccccc2o1)N(C1CC1)C1(C(=O)Nc2ccccc2)CCCC1,"inconclusive [inhibitor, single point]",–
Cc1oc(-c2ccc(Cl)cc2)nc1CSCC(=O)NCc1ccccc1Cl,"inconclusive [inhibitor, single point]",–
COc1cc(C2c3c(oc4ccc(C)cc4c3=O)C(=O)N2Cc2ccccc2)ccc1O (centres undefined),inactive,–
Cc1oc(-c2ccccc2Cl)nc1CSc1nc2c(c(=O)[nH]1)CCCC2,active: 18.4 µM,–
CCCC(=O)Nc1c2c(nc3ccccc13)N(c1ccccc1)CC2,"inconclusive [inhibitor, single point]",–
CN(CCC#N)S(=O)(=O)c1ccc2[nH]cc(C(=O)NCCc3ccccc3)c(=O)c2c1,"inconclusive [inhibitor, partial curve]",–
O=C(Nc1cccc(F)c1)c1cccc2c1C(=O)N(C1CCCCC1)C2,inactive,–
O=C1c2ccccc2C(=O)N1Cc1cnc(N2CCN(c3ccccc3)CC2)s1,active: 11.6 µM,–
Cn1nnnc1NC(=O)c1ccccc1Cl,inactive,–

Structure (SMILES),Potency,"activity change, negative = growth inhibition"
Cc1ccc(/C=N/N=C/c2ccc(C)s2)s1,"inconclusive [inhibitor, single point]",–
Cc1cc(C)cc(Cn2c3ccc(NC(=S)NCc4ccccc4F)cc3c(=O)n2C)c1,"inconclusive [inhibitor, single point]",–
CCOC(=O)C1=C(O)/C(=C/c2cc(C)n(-c3ccccc3)c2C)N=C1C,"inconclusive [inhibitor, partial curve]",–
O=C(c1ccccc1)c1coc2ccc(O)c(Cl)c12,inactive,–
Cc1ccccc1Nc1nnc(SCc2cc([N+](=O)[O-])cc3c2OCOC3)s1,"inconclusive [inhibitor, single point]",–
CC(C)n1cc(CN2CCC(C(=O)Nc3cccc(-c4cccc(Cl)c4)c3)CC2)cn1,"inconclusive [inhibitor, single point]",–
CC(=O)N1CCN(Cc2cc(=O)oc3cc(C)c(C)cc23)CC1,inactive,–
CCCOc1ccc(C2c3c(-c4ccccc4O)n[nH]c3C(=O)N2CCCOCC)cc1OCC (centres undefined),"inconclusive [inhibitor, single point]",–
O=C(COC(=O)CNS(=O)(=O)c1ccc(Cl)cc1)NC1CCCCC1,"inconclusive [inhibitor, single point]",–
N#Cc1cccc(NC(=O)c2cc(C3CCCCN3C(=O)CCc3ccccc3)on2)c1 (centres undefined),"inconclusive [inhibitor, partial curve, poor fit]",–
COc1ccc(-c2nc3ncccn3c2Nc2ccccc2)cc1,–,inconclusive: -32.9% [inhibitor]
CC(=O)Oc1ccc2c(=O)c(Oc3ccccc3[N+](=O)[O-])coc2c1,"inconclusive [inhibitor, full curve, poor fit]",–
COc1ccc(C(=O)C[n+]2ccc(Cl)c3ccc(Cl)cc32)cc1,active: 7.94 µM,–
CC(C)(C)c1ccc(OCCC(=O)NNC(=O)c2ccccc2)cc1,"inconclusive [inhibitor, single point]",–
Cc1onc(-c2c(Cl)cccc2Cl)c1C(O)c1ccccc1 (centres undefined),inactive,–
O=C(NCc1cc([N+](=O)[O-])ccc1O)c1cc(-c2ccncc2)nc2ccccc12,"inconclusive [inhibitor, single point]",–
COc1cc(NC(=O)COc2cccc3c2OC(C)(C)C3)cc(OC)c1OC,active: 8.2 µM,–
CCC(=O)N1CCCc2cc(S(=O)(=O)N3CCC(C(=O)Nc4ccccc4CC)CC3)ccc21,"inconclusive [inhibitor, single point]",–
CN(C(=O)C1CC1)C1CCS(=O)(=O)C1 (centres undefined),inactive,–
Clc1ccc(-c2nc3ccc(Cl)cn3c2Cc2cccc(Cl)c2)cc1,"inconclusive [inhibitor, single point]",–
CCOc1ccc(S(=O)(=O)NCc2ccc(Cl)cc2)c2cccnc12,"inconclusive [inhibitor, single point]",–
COc1ccccc1NC(=O)Cn1c(=O)n(-c2cccc(Cl)c2)c(=O)c2c1c1cc(C)ccc1n2C,inactive,–
